# Laboratory results taken from PubChem BioAssay AID1346428 (National Center for Advancing Translational Sciences (NCATS), 2018).
# Out of some 48,000 compounds screened, about 1,200 (2.5%) were called active. Not shown: some 2% with an inconclusive outcome.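 Rule for the calls: active = activation of at least 60% and not above a set upper limit (about 1 call in 100 departs from these limits); inconclusive = activation of 40% to 60%, or above that upper limit; inactive = activation under 40%.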 This is one part of the list.
# Molecular target: Probable G-protein coupled receptor 32 (Homo sapiens) (UniProt O75388)
# Chain of UniProt O75388 (O75388 whole entry, looked up): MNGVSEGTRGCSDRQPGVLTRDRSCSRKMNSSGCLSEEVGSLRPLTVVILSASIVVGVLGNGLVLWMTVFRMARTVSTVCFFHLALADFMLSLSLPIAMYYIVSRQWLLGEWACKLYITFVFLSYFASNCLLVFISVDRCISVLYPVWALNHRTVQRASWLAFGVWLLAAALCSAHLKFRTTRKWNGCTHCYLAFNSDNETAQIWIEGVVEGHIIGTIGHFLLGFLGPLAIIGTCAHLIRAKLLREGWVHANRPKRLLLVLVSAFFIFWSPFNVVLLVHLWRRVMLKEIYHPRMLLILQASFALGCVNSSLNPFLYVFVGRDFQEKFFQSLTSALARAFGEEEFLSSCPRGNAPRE
# Test: qHTS for Agonists of Human Resolvin D1 Receptor DRV1; note: 0% is about no effect
# Conditions: CHO-K1 GPR32 beta-arrestin PathHunter luminescence, 90 min; at 76.9 µM; active compounds read high; zero percent set by DMSO-only wells
# Outline: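 Luminescent readout of beta-Gal complementation quantifies ligand-induced beta-arrestin association with GPR32 in CHO-K1 cells; 90 min compound incubation at 37 °C, detection 1 h at room temperature.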
row,SMILES,activation
1,CCCc1cc(=O)[nH]c(Nc2cc(C)cc(C)c2)n1,inactive: 6.32%
2,Cc1ccc(Cl)cc1N1CCN(C(=O)CSc2cc(=O)n(C)c3ccccc23)CC1,inactive: -1.06%
3,CC1=C(C(=O)Nc2cc(Cl)ccc2C)C(c2sccc2C)n2ncnc2N1 (centres undefined),inactive: -17.9%
4,O=C(Nc1nc2ccc(F)cc2s1)c1nc(S(=O)(=O)Cc2ccccc2F)ncc1Cl,active: 105%
5,Cc1cc(C)c(NC(=O)Cn2c(=O)n(CCC(=O)NCc3ccccc3Cl)c(=O)c3sccc32)c(C)c1,inactive: 26%
6,O=C(CSc1cn(CCNC(=O)c2cccc(C(F)(F)F)c2)c2ccccc12)Nc1ccc2c(c1)OCCO2,active: 112%
7,CC(C)(C)c1ccc2c(c1)N(CC(=O)NCCCN1CCN(c3ccccc3F)CC1)C(=O)CO2,inactive: -14.4%
8,CSc1ncc(C(=O)NCc2ccc(C)cc2)c(C)n1,inactive: 2.64%
9,COc1ccc(C(=O)Nc2ccc3nc(SCC(=O)N(C)c4ccccc4)sc3c2)cc1,inactive: -0.272%
10,CC(C)N(C(=O)Cn1cc(S(=O)(=O)Cc2ccc(Br)cc2)c2ccccc21)C(C)C,inactive: -22%
11,CN(C)C(=S)SC(=S)N(C)C,inactive: -15%
12,CC1CCN(S(=O)(=O)c2ccc3c(c2)N(CC(=O)NCCCN2CCCCC2)C(=O)CS3)CC1,inactive: -14.4%
13,COc1ccc(NC2=C(c3ccccc3)C(=O)c3ccccc32)cc1Cl,inactive: 25%
14,Cc1ccc(CNC(=O)c2cc(-c3ccc(C)cc3)nc3n[nH]c(-c4cccc([N+](=O)[O-])c4)c23)cc1,inactive: 0.0923%
15,CCOc1ccc(S(=O)(=O)NCCc2c(C)[nH]c3c(Cl)cccc23)cc1C,inactive: 24.8%
16,Cc1c(C(=O)Nc2ccc(F)c(C(F)(F)F)c2)sc2nc(-c3ccccc3)cn12,inactive: -14.4%
17,CC(=O)Nc1ccc(Nc2ncnc3c2cnn3C)cc1,inactive: 14.2%
18,CCCN(CCC)C(=O)Cn1c(=O)n(CCCCCC(=O)NCc2ccc3c(c2)OCO3)c(=O)c2sccc21,inactive: -9.9%
19,CCOc1ccccc1CNC(=O)c1oc2c(c1C)-c1[nH]ncc1CC2,inactive: -16.9%
20,CC1CCN(c2ncnc3c2c(-c2ccccc2)cn3-c2ccc(Br)cc2)CC1,inactive: -0.493%
21,COc1ccccc1-c1noc(CCCC(=O)Nc2cccc(C(F)(F)F)c2)n1,inactive: -5.66%

row,SMILES,activation
1,Cc1ccc(C)n1-c1nnc(N2CCCC(C(=O)Nc3ccccc3Br)C2)s1 (centres undefined),inactive: -24.1%
2,CCOC(=O)c1c(NC(=O)c2cc(OC)c(OC)c(OC)c2)sc2c1CCCC2,inactive: -4.96%
3,O=C(CN1C(=O)C2(SCC(=O)N2c2cccc(Cl)c2)c2ccccc21)NCc1ccccc1 (centres undefined),inactive: -10.9%
4,COc1ccc(NC(=O)CCCn2c(=O)c3cccn3c3cccnc32)cc1Cl,inactive: -8.77%
5,CC(C)(C)c1ccc(OCC(=O)NCC2(N3CCOCC3)CCCCC2)cc1,inactive: -20.8%
6,C[n+]1cc2c3c(ccc2c2ccc4cc5c(cc4c21)OCO5)OCO3,inactive: 27.1%
7,COc1ccc(-c2cn3nc(N4CCC(C(=O)Nc5cc(Cl)ccc5C)CC4)sc3n2)cc1,inactive: 4.87%
8,COc1ccccc1-c1cc2nc(C)c(CCC(=O)NCCc3cccc(C)c3)c(C)n2n1,inactive: -2.37%
9,Cc1ccc(NC(=O)Cn2cnc3onc(-c4ccc(F)cc4)c3c2=O)c(Cl)c1,inactive: -12.6%
10,Cc1ccc(NC(=O)c2cc3ccccn3n2)cc1F,inactive: 25.3%
11,O=C(CCCCCn1c(=O)c2sccc2n(CC(=O)Nc2cc(C(F)(F)F)ccc2Cl)c1=O)NCc1ccccc1Cl,inactive: -25.1%
12,CCc1cccc(-n2c(=O)c3cccnc3n2CC(=O)NCc2ccc(C)cc2)c1,inactive: -2.46%
13,Cc1cc(C)cc(NC(=O)CSc2nc3nccnc3c(=O)n2CCc2c[nH]c3ccccc23)c1,inactive: 1.53%
14,Cc1ccc(-c2cn3ccc(C)cc3n2)cc1,inactive: -43.7%
15,CC(C)CCn1c(/C=C/c2ccccc2)nc2ccccc21,inactive: -30.8%
16,CCOC(=O)Cn1c(=O)n(C2CCCCC2)c2nc(-c3c(F)cccc3Cl)nc(C(N)=O)c21,inactive: -30.6%
17,O=C(Nc1ccccc1Cl)N1CCSc2ccccc21,inactive: -29.3%
18,COC(=O)c1scc(-c2ccc(C)cc2)c1S(=O)(=O)Nc1cc(C)ccc1OC,inactive: -12.3%
19,Cc1cccc(NC(=O)Cn2c(=O)n(CCCCCC(=O)NCc3ccc4c(c3)OCO4)c(=O)c3sccc32)c1,inactive: -24%
20,O=C(c1ccc2c(c1)N(Cc1ccccc1)C(=O)c1ccccc1S2(=O)=O)N1CCN(Cc2ccccc2)CC1,inactive: -21.7%
21,COc1ccccc1C(=O)Nc1sc(Nc2ccccc2)nc1C(N)=O,inactive: -17.1%

row,SMILES,activation
1,COc1ccc(Nc2nc(C)nc(N)c2S(=O)(=O)c2ccccc2)cc1,inactive: -4.86%
2,Cc1ccc(NC(=O)c2cnc3sc(N4CCOCC4)nn3c2=O)cc1N(C)C,inactive: -2.75%
3,Cc1ccc(C)c(N2CCN(CCCNC(=O)c3ccc4nc(CCc5ccccc5)oc4c3)CC2)c1,inactive: -15.7%
4,Cc1cc(C)c2c(NC(=O)c3ccccc3)c(C(=O)Nc3ccc(F)cc3)sc2n1,inactive: -7.09%
5,CCOc1ccc(N2CC(NC(=O)C3CCCC3)CC2=O)cc1 (centres undefined),inactive: -8.07%
6,CCCNC(=O)C1CCC(Cn2c(=O)c3sccc3n(CC(=O)NCc3cccc(OC)c3OC)c2=O)CC1 (centres undefined),inactive: -2.58%
7,Cc1ccc(C(=O)N/C(=C\c2ccc(Cl)cc2)C(=O)NC2CCCCC2)cc1,inactive: -18.8%
8,COc1ccc(OC)c(NS(=O)(=O)c2ccc(N3CCCCS3(=O)=O)cc2)c1,inactive: 26.3%
9,COc1cccc(N2CC(NC(=O)c3cc(Cl)ccc3OC)CC2=O)c1 (centres undefined),inactive: -14.1%
10,N#Cc1c(C(F)(F)F)cc(-c2cccs2)nc1SCC(=O)Nc1cccc(Cl)c1,inactive: -8.98%
11,CC(=O)c1cccc(NC(=O)CN(c2cc(C)cc(C)c2)S(=O)(=O)c2c(C)noc2C)c1,inactive: -1.14%
12,COc1ccc(C(=O)c2sc(Nc3ccccc3)nc2N)cc1,inactive: 15.4%
13,COc1ccc(NC(=O)c2ccco2)cc1NC(=O)c1cc(OC)c(OC)c(OC)c1,inactive: 0.551%
14,COc1ccc(-c2onc(C)c2C)cc1S(=O)(=O)N(C)Cc1ccccc1,inactive: -22.9%
15,Cc1cc(-n2ccnc(NCCc3ccc(S(N)(=O)=O)cc3)c2=O)ccc1Br,active: 120%
16,Cc1ccc(-n2c(COCC(=O)O)nc3cccnc32)cc1,inactive: 7.73%
17,Cc1oc(-c2ccc(Cl)cc2)nc1CN1CCCC(C(=O)NCc2ccccc2)C1 (centres undefined),active: 106%
18,Cc1ccc(/C=C(\C#N)C(=O)Nc2cccc(Br)c2)o1,inactive: -4.91%
19,CCN1CCN(C(c2ccccc2Cl)c2c(O)cc(C)n(CCOC)c2=O)CC1 (centres undefined),inactive: -5.63%
20,Cc1ccc(Cl)cc1N1CCN(C(=O)c2cc3c(=O)oc4ccccc4c3s2)CC1,inactive: 0.505%
21,CCCCn1c(=O)nc2n(-c3ccc(Br)cc3)c3ccccc3cc-2c1=O,inactive: -13.4%

row,SMILES,activation
1,Nc1nn(-c2ccccc2)nc1C(=O)OCc1ccccc1,inactive: 28.3%
2,CC1CCCN(CCCNC(=O)Cn2ncc3c([nH]c4ccccc43)c2=O)C1 (centres undefined),inactive: -16.6%
3,N[C@@H](Cc1cc(I)c(Oc2cc(I)c(O)c(I)c2)c(I)c1)C(=O)O,inactive: -9.09%
4,Cc1nc2ccc(S(=O)(=O)NCC(=O)Nc3ccc(F)cc3F)cc2s1,inactive: -14.5%
5,Cc1ccccc1OCCn1c(CCNC(=O)C2CCCCC2)nc2ccccc21,inactive: -5.91%
6,Cc1ccc(S(=O)(=O)N2CCN(Cc3nc4ccc(C)cc4o3)CC2)c(C)c1,inactive: -0.481%
7,COc1cccc(C(=O)Nc2nc(-c3ccc(Br)cc3)ns2)c1,inactive: 36.5%
8,CCOC(=O)Cc1ccc(NC(=O)N(Cc2ccc(CC)cc2)Cc2cn[nH]c2-c2ccc(OC)cc2)cc1,inactive: -10.7%
9,COCCCNC(=O)CSC1=Nc2ccccc2C2=NC(CCC(=O)NCc3ccc(OC)cc3)C(=O)N12 (centres undefined),inactive: 11.8%
10,CCOC(=O)c1c(C)[nH]c(C)c1S(=O)(=O)N(C)CC(=O)Nc1ccc(C)cc1Br,inactive: -16.9%
11,Cc1ccc(-n2c(SCC(=O)N3CCCc4ccccc43)nc3c([nH]c4ccccc43)c2=O)cc1,inactive: -27.1%
12,CCc1ccc(C2=CC(c3c(F)cccc3Cl)n3c(nc4ccccc43)N2)cc1 (centres undefined),inactive: -8.43%
13,CCc1ccc(OCCn2c(C3CC(=O)N(Cc4ccc(F)cc4)C3)nc3ccccc32)cc1 (centres undefined),inactive: -35%
14,CC(C)(C)C(=O)Nc1ccccc1C(=O)OCc1cc(=O)n2ccsc2n1,inactive: -7.17%
15,Cc1cccc(C)c1NC(=O)Cn1nnc(C(=O)NCc2ccc(F)cc2)c1N,inactive: -1.76%
16,Cc1ccccc1CCNC(=O)C1CCN(S(=O)(=O)c2ccc3c(ccn3C)c2)CC1,inactive: -4.83%
17,O=C(NCC1(c2ccccc2)CCCC1)C(=O)Nc1cccc(Br)c1,inactive: -6.9%
18,Cn1nnnc1SCCCNCc1cccc(OCc2ccc(F)cc2)c1,inactive: -3.8%
19,Cn1c(=O)c2c(nc(Oc3ccccc3Cl)n2Cc2ccc(C#N)cc2)n(C)c1=O,inactive: 1.68%
20,COc1cc(Nc2ncc3c(n2)CCN(Cc2cccc(C)c2)C3)cc(OC)c1,inactive: 26.2%
21,Cc1cccc(N2CCN(C(=O)C3CCN(c4ncnc5c4nc4n5CCCCC4)CC3)CC2C)c1 (centres undefined),inactive: 12.4%
